Whole data set: some 33,000 sequences, median “E-score (-0.5 to 0.5)” near -0.017, cut for the highest 2% near 0.3. The list shows a part of the results.
target: T1, Sut1 (UniProt P53032); experiment: PBM E-score (8-mer binding enrichment) (E-score (-0.5 to 0.5)); higher = stronger / more preferred TF binding; most listed sequences are background and not binding sites; details: protein concentration: 200 nM; construct: GST-full length
T1 sequence: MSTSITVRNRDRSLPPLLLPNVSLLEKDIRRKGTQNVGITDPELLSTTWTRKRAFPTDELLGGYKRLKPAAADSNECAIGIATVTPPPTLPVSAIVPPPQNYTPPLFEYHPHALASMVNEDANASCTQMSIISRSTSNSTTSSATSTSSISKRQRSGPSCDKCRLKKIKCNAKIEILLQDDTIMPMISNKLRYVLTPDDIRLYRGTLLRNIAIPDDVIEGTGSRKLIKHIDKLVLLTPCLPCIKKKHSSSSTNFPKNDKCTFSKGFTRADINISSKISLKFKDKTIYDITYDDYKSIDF
Method in brief: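 Yeast transcription factors, full-length or as DNA-binding domains, were expressed with a GST tag using PURExpress in vitro transcription/translation. At about 100-200 nM they were applied to universal all-10-mer Agilent arrays, double-stranded by primer extension on fresh or once-stripped slides. Fluorescent anti-GST detected bound protein, and masliner normalised the scans. E-scores for ungapped eight-base words, pooled with reverse complements, came from the Universal PBM Analysis Suite.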

Row | Sequence | PBM E-score
1 | ACACAAAG | 0.0367
2 | CCGCACAC | -0.238
3 | CAAATCAA | 0.198
4 | TCGAGCGA | -0.0279
5 | CAAGTATG | 0.0612
6 | GAATAGCA | 0.103
7 | GTAGTTTA | 0.239
8 | CCTTTTTC | 0.0433
9 | AGACAGTG | -0.124
10 | AGGGAATG | -0.153
11 | CCTGTCGC | -0.27
12 | AGAATTCT | 0.15
13 | ATGTCTGG | 0.0121
14 | GAAATCTA | 0.191
15 | AGCACAGA | 0.125
16 | AGACTTTA | -0.111
17 | ACCTAACA | 0.162
18 | CAAGGACG | -0.156
19 | ACTTGAGG | -0.0146
20 | GCTGCACA | -0.0918
21 | ACCCCGTA | 0.137
22 | AAAAAAAC | 0.159

Row | Sequence | PBM E-score
23 | GAAACGAC | 0.0454
24 | CCCCTGCG | -0.407
25 | GACTGTGC | -0.072
26 | CCGACCCA | 0.0491
27 | CGCCGGCA | 0.102
28 | ACGGGCCA | -0.0563
29 | CAAAGGCC | -0.0635
30 | ACTGAACG | -0.193
31 | GTGACAGA | -0.121
32 | CTTGAGGC | -0.0356
33 | AACAGTAC | 0.0343
34 | ACGCTGGC | -0.143
35 | AAGTACGC | -0.0232
36 | ATTGTACA | -0.00023
37 | TTATGCAA | -0.0123
38 | CCATATCG | 0.00133
39 | ACTAAGCC | 0.00053
40 | TAGATTGA | 0.0402
41 | CCTTATAG | 0.0911
42 | ACCCTTCA | -0.0519
43 | TCTCCCCA | -0.212
44 | CAATAACC | 0.0745

Row | Sequence | PBM E-score
45 | TAAGGGTA | -0.198
46 | GGCCGGTA | 0.0132
47 | ATGCCGGA | 0.325
48 | GAAACAGA | 0.0594
49 | TACCCACA | -0.0829
50 | CTGCCGGC | -0.0532
51 | GTGGAACA | -0.0308
52 | GGGGTCAC | -0.251
53 | CAAGCGGG | -0.197
54 | AACTACTT | 0.0474
55 | CAACGAAC | -0.0827
56 | AGAGGAGA | -0.248
57 | AGAAATTA | 0.335
58 | CACAGGTA | -0.1
59 | CTACCTAC | 0.107
60 | ACGTGGGC | -0.221
61 | GCAGGCTA | -0.187
62 | CTGCCGGA | 0.0897
63 | CACCTTGG | -0.0353
64 | GTGTGGCA | -0.133
65 | ATCTTCAG | 0.162
66 | ATTTCCGG | 0.325

Row | Sequence | PBM E-score
67 | AAATTGGT | 0.206
68 | ATCTGTCA | 0.158
69 | AACCGAAT | 0.099
70 | GCAAGTAA | 0.121
71 | CTCGATTC | 0.0392
72 | ATTACGCC | -0.0733
73 | ATGGCTTC | 0.101
74 | ACTGAGAC | 0.00875
75 | CTGCGAGC | -0.126
76 | CGGGTGGA | -0.227
77 | TCGGTTAA | 0.183
78 | AAATATCC | 0.161
79 | ACGCCGAC | -0.0103
80 | ATGCCGAG | -0.0383
81 | CCGGCTCA | 0.165
82 | ACAGACTA | -0.118
83 | ACCAGAAG | -0.129
84 | ATACCTTC | 0.075
85 | TGGTTACA | -0.0843
86 | ACCTTCAG | -0.0815
87 | GTAAATTA | 0.213
88 | CAGGCCGC | -0.289

Row | Sequence | PBM E-score
89 | ATGCAATC | 0.102
90 | AAGGCGCG | -0.182
91 | ATTCCAAT | 0.161
92 | AAACCCGC | -0.0276
93 | CACACGAA | 0.0539
94 | CTTCTTTA | 0.0979
95 | CGTATGAA | 0.153
96 | ATGGACTA | -0.0502
97 | ACCGCCAG | -0.0576
98 | AAGTGACG | -0.0111
99 | GAAAGTAA | 0.197
100 | AAGAGCAA | -0.00505
101 | ACATCGGT | -0.034
102 | GTGCGCAC | -0.0106
103 | CGCTAAAA | 0.0272
104 | CCCATAGA | -0.268
105 | AATGACAT | 0.0558
106 | CATTGAAC | 0.0642
107 | ACCTCAAG | -0.104
108 | TAAAGTAA | 0.142
109 | GTTCTATA | 0.116
